Measured values: the RNAGym collection of RNA variant scans (doi:10.7554/elife.90254)
The source gives no read counts; variants with many changes may rest on few reads.

B1: LINE1-mini (parent)
chain: GGCAGAGCUCAACACAGCGUGGCAAAGUGGCUGUGGCUAGACUGCC

Variants of: B1
Assay: self-cleavage, relative activity (ratio to wild type); higher = more cleavage; in vitro, sequencing; the parent is a self-cleaving ribozyme

Row | Variant | self-cleavage
1 | GACAGAGCUCAACUCAGCGUGGCAAAGUGGCUGUGGGUAGACUCCC [G2A A14U C37G G44C] | 0.19
2 | GGCAGAGCUCAACACAGCGUGGCAAAGUGGCUGGGGCGAGACUGCU [U34G U38G C46U] | 0.03
3 | GGCAGAGUUCAAAACGGCGUGGCAAAGUGGCUGUGGCUAGACUGCC [C8U C13A A16G] | 0.12
4 | GACAGACCUCAACACAGCGUGGCCAAGUGGCUGUGGCUAGACUCCC [G2A G7C A24C G44C] | 0.3
5 | GGCAGAGCUCAACACAGCGUGGCAAAGUGGCUGGGCCUAUACUGCC [U34G G36C G40U] | 0.05
6 | GGCAGAGCUCAACACAGCGUGGCAAAGUGGCUCUGGUUAGACUGAC [G33C C37U C45A] | 0.02
7 | GGCAGAGCUCAACUCAGCGUGGCAAAGUGGCUGGGGCCAGACUGCC [A14U U34G U38C] | 0.45
8 | GGCAGAGCCCAACACAGAGUGGCAAAGUGACAGUGGCUAGACUGCC [U9C C18A G30A U32A] | 0.02
9 | GGCAGAGCUCAACACAGCGUGGCAAAGUGCCUUUAGCUAGACUGCC [G30C G33U G35A] | 0.03
10 | GGCAGAGCUCUACACAGCGUGACAAACUGGCUGUGGUGAGACUGCC [A11U G22A G27C C37U U38G] | 0
11 | GGCAGAGCUCAAGACAGCGUGGCAAAGUGAAUGUGGCUAGACUGCC [C13G G30A C31A] | 0.28
12 | GGCAGAGCUCACCACACCAUGGCAAAGUGGCUGUGGCUAGACUCCC [A12C G17C G19A G44C] | 0.02
13 | GGCAGAGCUCAAGACAGCGUGGCAAAGUGGCCGUGGUUAGACUGCC [C13G U32C C37U] | 0.11
14 | GGAUGAACUCGACACAGCGUGGCAAAGUGGCUGUGGCUAGACUGCC [C3A A4U G7A A11G] | 0.08
15 | GGUAGUGCUCAACACAGCGUGGCAAAGUGGCUGUGGCUGGACUGCC [C3U A6U A39G] | 0.05
16 | GGCAGCGCUCAAAUCAGCGUGGCAAAGUGGCUGUGGCUAGACUGCG [A6C C13A A14U C46G] | 0.05
17 | GGCAUAGCUCAACACAGCGUGGCAAAGUGGCUGUGGCUACACUGCG [G5U G40C C46G] | 0.18
18 | GGGAGAGCUCCACACAGCGUGGCAAAGUGGCUGUGGCUAGACUGCA [C3G A11C C46A] | 0
19 | GGCAAAGCUCAACACAGCGUGGCAAAGUGGUUGGUGCUAGACUGCC [G5A C31U U34G G35U] | 0.05

Row | Variant | self-cleavage
20 | GGCAGAGCGCCACACAGCUUGGUAAAGUGAUUGUGGCGAGACUGCC [U9G A11C G19U C23U G30A C31U U38G] | 0
21 | GGCAGAGCUCGACACAUCGUGGCAAAAUCGCUGUGGCUAGACUGCC [A11G G17U G27A G29C] | 0.02
22 | GGCAGUGCUCAACAAAGCGCGGCAAAGUGGCUGUGGCUUGACUGCC [A6U C15A U20C A39U] | 0.01
23 | GGCAGCGCGCAACAAAGGGUGGCAAAGUGGCUGUGGCUAGACUGCC [A6C U9G C15A C18G] | 0.12
24 | GGCAGAGUUCAACACAGCGUGGCAAAGUGGCUGUGGCUAUACUGCG [C8U G40U C46G] | 0.03
25 | GGCUAAGCUCAACAAAGCGUGGCAAAUUGGCUGUGGCUAGACUGCC [A4U G5A C15A G27U] | 0.02
26 | UGCAGAGUUAAACACACCGUGGCAAAGUGGCUGUGGCUAGACUGCC [G1U C8U C10A G17C] | 0.03
27 | GGCGGAGUUCAACACAGCGUUGCAACGUGGCUGUGGCGAGACUGCC [A4G C8U G21U A26C U38G] | 0.01
28 | GUCAGAGCUCAUCACAGCGUGGCAAAGUGGCGGUGGCUAGACUGGC [G2U A12U U32G C45G] | 0.01
29 | GGCAGAGCUCAACACAGCGAGGUAACGUUGCUGUGGCUAGACUGGC [U20A C23U A26C G29U C45G] | 0
30 | GCCAGAGCCCAACACAUCGUGGAAAAGUAGCUGUGGCUAGCCUGCC [G2C U9C G17U C23A G29A A41C] | 0.06
31 | GGCAGAGCUCGACACAGCUUGGCAAAGUGGCUGUGGCUAGACUUCC [A11G G19U G44U] | 0.03
32 | GACAGAGCUUAACACAGCGUGGCAAAGUGGCUGUGGCUGGACUGCC [G2A C10U A39G] | 0.2
33 | GGCCGAGCUCAACCCAGCGUGGCAAAGUGGCUGUGGCUAGACUGGU [A4C A14C C45G C46U] | 0.05
34 | GGCAUAGCUGAACACAGUGUGGCAAAGUGGCUGUGGCUAGACUGCC [G5U C10G C18U] | 0.05
35 | GGCAGAGCCCAACACAGCACGGCAAAGUGGCUGUGCCUAGACUGCC [U9C G19A U20C G36C] | 0.01
36 | GGCAGAGCUGUACACAGAGUGGCAAAGUGGCUGAGGCUAGACUCCC [C10G A11U C18A U34A G44C] | 0.02
37 | GGCAGAGUUCAACACAGCGUCGUAAAGUGGCUGUGGCUAGACUGCC [C8U G21C C23U] | 0.09
38 | GGCAGCGCUCAACACAGCGUGGGAAAGUGGCUCUCGCUAGACUGCC [A6C C23G G33C G35C] | 0.04

Row | Variant | self-cleavage
39 | GGCAGAGCUCAACACUGCGUGCCAAAGUGGCUGGGGCAAGACUGCC [A16U G22C U34G U38A] | 0
40 | GGCAUAGCUAAAAACAUCGUGGCAAAGUUGCUGUGGCUAGCCUGCC [G5U C10A C13A G17U G29U A41C] | 0.01
41 | GGCAGAGCUCAACAAAGCGUUGGAAAGUGGCUGUGGCUAGACUGGG [C15A G21U C23G C45G C46G] | 0.01
42 | GGCAGAGCUCAUCACAGCAUGGCAAAGUGGCAGUGGCUAGACUGCC [A12U G19A U32A] | 0.02
43 | GGCACAGCUCAACACAGCGUGGCAAAGUGGCCGUGGAUGGACUGCC [G5C U32C C37A A39G] | 0.04
44 | GCCAGAGCUCAACACAGCGUGGCAAACUGGCUGUGGCUACCCUGCC [G2C G27C G40C A41C] | 0.18
45 | GGCAGAGCUCAACACAGCGUGACAAAGUGGCUGAGGCUAGACUGCG [G22A U34A C46G] | 0.09
46 | GGCAGCGGUCAACACAGAGUGGCACAGUGGCUGUGGCUAGACUGCC [A6C C8G C18A A25C] | 0.01
47 | GGCAGAGCUCAACACAGCGAGGUGAAGUGGCUGUGGCUAUACUGCC [U20A C23U A24G G40U] | 0.06
48 | GGCAGAGAUCAACACAGCGUGGCAAAGUGGCUACGGCUAGACUGCC [C8A G33A U34C] | 0.09
49 | GGCAGGGCUCAACACAGCGUGGCAAAGAGGCUUUGACUAGACUGCC [A6G U28A G33U G36A] | 0.03
50 | GGCAGAGCUCAACACAGCGUGGCAAAGUUGCUAUGGCUAGCCUGCC [G29U G33A A41C] | 0.05
51 | GGCAGAGCUGAACCCAGCGUGGCAAAGUGGCUGUGCCUAGACUGCC [C10G A14C G36C] | 0.01
52 | GGCAGAGCUCAACACAGCGUUGCUAAUUGGCUGUGGCUAGACUGCC [G21U A24U G27U] | 1.82
53 | GGCAGAGCUGAACACAGCGUGGCACAGUGGCUGUGGGUGGACUGCC [C10G A25C C37G A39G] | 0.01
54 | GGUAGAGCUCAACACAACGUGGCAAAGUGGCUGAGGCUAGACUGCC [C3U G17A U34A] | 0.04
55 | GGCAGAGCUCAACACAGCGUGGUAAAGUGGCUAUGGCUAGAAUGCC [C23U G33A C42A] | 0.02
56 | GGCACAGCUCUAUCCAGCCUGGCAAAGUGGAUAUGGCUAGACUGCC [G5C A11U C13U A14C G19C C31A G33A] | 0.01
